Source: article PMC6393405
Like-named read-outs stand apart in the source and are kept apart here. These are yes or no findings as the source states them, for the method shown. Binding seen in cells or lysates may run through a third protein. Some entries that bind do so weakly or less than the wild type. For some assays here: Sequences can lack the tags named with a protein.

The chains behind the UniProt entries cited, without tags or fusion partners. Where a name states a change or a piece, a line headed by the entry shows the natural chain unless it says otherwise. A line that says so, or that is headed by a name, gives the form on record, which may keep a tag or linker. Residues count along the entry.
GFP-tagged GluN2B WT (Q00960, residues 27-1482): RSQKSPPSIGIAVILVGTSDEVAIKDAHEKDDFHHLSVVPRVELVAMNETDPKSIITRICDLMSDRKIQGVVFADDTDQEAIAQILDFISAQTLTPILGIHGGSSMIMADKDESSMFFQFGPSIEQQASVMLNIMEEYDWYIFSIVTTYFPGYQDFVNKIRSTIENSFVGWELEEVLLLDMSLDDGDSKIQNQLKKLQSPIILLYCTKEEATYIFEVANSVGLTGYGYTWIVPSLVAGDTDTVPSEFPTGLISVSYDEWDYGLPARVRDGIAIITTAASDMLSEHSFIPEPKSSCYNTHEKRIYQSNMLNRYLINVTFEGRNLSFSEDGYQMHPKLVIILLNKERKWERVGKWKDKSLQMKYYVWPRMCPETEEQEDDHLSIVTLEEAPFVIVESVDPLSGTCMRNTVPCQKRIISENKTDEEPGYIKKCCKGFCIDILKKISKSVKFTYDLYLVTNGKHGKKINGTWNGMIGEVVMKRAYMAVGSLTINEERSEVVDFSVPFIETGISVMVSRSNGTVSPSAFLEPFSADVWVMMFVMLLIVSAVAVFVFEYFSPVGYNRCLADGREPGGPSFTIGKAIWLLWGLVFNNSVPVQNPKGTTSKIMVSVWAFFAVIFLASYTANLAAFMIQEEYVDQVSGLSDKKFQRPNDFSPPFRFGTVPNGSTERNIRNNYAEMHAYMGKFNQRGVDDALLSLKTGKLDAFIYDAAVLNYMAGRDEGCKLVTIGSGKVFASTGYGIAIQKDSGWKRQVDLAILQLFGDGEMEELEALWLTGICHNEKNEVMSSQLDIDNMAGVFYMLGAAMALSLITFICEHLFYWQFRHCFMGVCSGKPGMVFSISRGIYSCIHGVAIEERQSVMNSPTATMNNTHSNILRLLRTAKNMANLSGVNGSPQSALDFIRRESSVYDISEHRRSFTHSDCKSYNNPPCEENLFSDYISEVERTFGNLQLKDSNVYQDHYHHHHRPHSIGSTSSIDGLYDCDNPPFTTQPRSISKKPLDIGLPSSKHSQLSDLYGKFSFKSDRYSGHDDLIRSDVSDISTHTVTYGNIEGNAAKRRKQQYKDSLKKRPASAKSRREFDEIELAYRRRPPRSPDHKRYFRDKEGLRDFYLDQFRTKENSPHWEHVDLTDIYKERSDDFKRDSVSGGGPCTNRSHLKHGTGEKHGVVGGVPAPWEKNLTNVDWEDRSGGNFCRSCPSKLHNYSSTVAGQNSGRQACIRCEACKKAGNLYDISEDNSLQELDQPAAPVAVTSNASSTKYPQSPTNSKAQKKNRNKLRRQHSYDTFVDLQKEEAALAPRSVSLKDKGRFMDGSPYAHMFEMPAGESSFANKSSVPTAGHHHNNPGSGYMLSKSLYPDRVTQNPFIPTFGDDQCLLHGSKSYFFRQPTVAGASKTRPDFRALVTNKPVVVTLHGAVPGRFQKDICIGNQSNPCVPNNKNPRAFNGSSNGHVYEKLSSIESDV
GFP-tagged GluN2B 3CS (Cys cluster I palmitoylation-deficient mutant) (Q00960, form named): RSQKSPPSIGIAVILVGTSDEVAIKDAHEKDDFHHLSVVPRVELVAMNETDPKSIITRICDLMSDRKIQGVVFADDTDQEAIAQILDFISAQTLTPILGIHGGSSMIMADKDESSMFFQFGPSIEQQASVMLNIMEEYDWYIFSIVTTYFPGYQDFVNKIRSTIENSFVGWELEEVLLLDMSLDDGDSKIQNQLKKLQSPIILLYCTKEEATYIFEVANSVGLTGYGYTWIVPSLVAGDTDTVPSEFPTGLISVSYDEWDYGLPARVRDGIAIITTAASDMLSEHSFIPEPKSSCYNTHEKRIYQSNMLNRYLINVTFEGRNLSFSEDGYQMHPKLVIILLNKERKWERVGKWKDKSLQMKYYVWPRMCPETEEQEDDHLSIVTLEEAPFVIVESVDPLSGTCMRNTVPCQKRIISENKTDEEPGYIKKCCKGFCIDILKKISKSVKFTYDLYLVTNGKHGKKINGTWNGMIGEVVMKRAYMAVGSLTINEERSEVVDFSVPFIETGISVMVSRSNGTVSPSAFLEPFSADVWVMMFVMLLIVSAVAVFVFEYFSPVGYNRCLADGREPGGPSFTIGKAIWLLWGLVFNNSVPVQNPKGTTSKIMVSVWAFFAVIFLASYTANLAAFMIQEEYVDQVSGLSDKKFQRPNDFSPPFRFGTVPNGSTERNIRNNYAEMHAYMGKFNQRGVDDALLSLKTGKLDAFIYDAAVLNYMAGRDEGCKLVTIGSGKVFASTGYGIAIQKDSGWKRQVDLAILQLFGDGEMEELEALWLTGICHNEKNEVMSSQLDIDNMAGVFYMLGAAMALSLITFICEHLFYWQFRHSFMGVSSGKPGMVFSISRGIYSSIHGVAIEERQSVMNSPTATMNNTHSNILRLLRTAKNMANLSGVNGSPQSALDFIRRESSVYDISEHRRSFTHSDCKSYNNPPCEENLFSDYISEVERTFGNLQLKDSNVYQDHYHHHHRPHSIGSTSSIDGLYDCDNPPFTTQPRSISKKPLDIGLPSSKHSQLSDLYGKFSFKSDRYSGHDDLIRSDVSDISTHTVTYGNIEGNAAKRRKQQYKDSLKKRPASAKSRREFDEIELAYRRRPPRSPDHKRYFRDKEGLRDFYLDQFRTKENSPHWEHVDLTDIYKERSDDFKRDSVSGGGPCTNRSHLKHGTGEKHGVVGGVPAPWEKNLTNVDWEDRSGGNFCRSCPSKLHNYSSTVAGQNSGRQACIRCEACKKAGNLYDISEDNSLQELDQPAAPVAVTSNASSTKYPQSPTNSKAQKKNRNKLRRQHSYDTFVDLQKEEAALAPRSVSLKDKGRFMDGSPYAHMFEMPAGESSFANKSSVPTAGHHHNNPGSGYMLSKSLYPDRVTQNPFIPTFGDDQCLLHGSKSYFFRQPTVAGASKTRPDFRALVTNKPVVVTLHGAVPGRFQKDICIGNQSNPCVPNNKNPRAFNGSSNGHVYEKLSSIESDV
GFP-tagged GluN2B 5CS (Cys cluster II palmitoylation-deficient mutant) (Q00960, form named): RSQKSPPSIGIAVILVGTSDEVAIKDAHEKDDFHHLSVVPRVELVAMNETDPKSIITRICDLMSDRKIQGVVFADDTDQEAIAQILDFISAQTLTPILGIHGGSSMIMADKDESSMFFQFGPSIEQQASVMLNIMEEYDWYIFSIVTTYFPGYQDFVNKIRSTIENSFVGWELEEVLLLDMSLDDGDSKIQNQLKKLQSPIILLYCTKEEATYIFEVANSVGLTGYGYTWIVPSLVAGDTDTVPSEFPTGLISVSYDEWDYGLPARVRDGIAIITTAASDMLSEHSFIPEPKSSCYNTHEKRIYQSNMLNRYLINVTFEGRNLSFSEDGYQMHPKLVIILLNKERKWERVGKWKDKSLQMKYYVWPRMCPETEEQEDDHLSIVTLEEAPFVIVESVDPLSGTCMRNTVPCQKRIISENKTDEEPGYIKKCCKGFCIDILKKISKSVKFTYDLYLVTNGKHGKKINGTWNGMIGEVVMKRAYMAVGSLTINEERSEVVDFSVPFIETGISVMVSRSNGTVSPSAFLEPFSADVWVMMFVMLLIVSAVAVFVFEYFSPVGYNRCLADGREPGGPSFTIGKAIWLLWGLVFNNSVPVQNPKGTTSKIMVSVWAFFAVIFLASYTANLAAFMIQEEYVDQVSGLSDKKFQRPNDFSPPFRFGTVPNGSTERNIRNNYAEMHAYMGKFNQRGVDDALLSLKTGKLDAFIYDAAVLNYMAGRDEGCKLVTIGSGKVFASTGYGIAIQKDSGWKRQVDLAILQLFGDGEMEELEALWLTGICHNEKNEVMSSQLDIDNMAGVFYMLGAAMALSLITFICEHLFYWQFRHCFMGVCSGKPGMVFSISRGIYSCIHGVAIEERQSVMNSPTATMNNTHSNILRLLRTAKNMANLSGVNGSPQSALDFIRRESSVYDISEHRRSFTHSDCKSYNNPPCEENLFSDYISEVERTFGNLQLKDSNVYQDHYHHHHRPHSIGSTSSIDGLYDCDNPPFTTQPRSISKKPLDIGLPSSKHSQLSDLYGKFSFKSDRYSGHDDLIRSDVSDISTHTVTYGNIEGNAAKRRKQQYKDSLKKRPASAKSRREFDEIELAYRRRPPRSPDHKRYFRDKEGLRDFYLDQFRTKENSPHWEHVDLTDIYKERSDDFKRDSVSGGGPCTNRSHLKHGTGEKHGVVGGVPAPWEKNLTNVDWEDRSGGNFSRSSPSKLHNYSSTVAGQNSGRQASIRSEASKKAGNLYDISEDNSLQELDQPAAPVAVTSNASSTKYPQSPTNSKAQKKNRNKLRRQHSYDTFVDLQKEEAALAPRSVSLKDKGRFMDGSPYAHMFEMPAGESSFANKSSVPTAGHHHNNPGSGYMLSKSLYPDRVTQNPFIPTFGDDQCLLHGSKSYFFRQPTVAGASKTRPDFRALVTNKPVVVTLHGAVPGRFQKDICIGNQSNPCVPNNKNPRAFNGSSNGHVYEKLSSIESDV
UniProt Q8IUH5: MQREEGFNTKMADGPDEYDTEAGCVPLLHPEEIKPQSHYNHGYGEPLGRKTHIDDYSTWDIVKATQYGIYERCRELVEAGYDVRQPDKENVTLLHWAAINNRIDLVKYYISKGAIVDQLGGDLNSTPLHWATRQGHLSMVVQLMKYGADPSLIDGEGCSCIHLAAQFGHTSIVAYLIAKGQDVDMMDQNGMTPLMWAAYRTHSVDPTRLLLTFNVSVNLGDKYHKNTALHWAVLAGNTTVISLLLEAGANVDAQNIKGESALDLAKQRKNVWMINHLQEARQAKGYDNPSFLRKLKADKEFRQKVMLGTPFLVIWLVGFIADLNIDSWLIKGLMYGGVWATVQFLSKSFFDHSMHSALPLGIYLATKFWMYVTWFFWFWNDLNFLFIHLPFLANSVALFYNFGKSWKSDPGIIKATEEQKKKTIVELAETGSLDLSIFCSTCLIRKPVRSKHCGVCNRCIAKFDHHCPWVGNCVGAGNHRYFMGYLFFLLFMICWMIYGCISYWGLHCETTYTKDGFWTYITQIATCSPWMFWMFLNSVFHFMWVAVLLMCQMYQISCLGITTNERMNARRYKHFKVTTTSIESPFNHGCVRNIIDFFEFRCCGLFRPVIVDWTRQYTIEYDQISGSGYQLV

Experiments:
Test in all cases: co-IP; COS-7 cells co-transfected with GFP-GluN2B (WT, 5CS or 3CS), HA-GluN1-1A and HIP14-Flag or HIP14L-Flag, 36 h; lysis in 150 mM NaCl, 50 mM Tris pH 7.4, 5 mM EGTA, 0.2% SDS, 1% Triton X-100; precipitated with anti-GFP antibody at 4°C overnight, blot probed with anti-Flag
[1] = target: GFP-tagged GluN2B 3CS (Cys cluster I palmitoylation-deficient mutant) (UniProt Q00960)
GFP-tagged GluN2B WT = GFP-tagged GluN2B WT (UniProt Q00960)
[2] = target: GFP-tagged GluN2B 5CS (Cys cluster II palmitoylation-deficient mutant) (UniProt Q00960)
[3] = target: GFP-tagged GluN2B 3CS (Cys cluster I palmitoylation-deficient mutant) (UniProt Q00960); remark: listed apart in the source
[4] = target: GFP-tagged GluN2B 5CS (Cys cluster II palmitoylation-deficient mutant) (UniProt Q00960); remark: listed apart in the source

| binding [1] | binding (GFP-tagged GluN2B WT) | binding [2] | binding [3] | binding [4] | Molecule |
| --- | --- | --- | --- | --- | --- |
| binds | binds | binds | – | – | HIP14-Flag (huntingtin-interacting protein 14, zDHHC17) (from UniProt Q8IUH5 1-632) (enzyme) |
| – | – | – | binds weakly | no binding | HIP14L-Flag (huntingtin-interacting protein 14-like, zDHHC13) (enzyme, UniProt Q8IUH4 1-622) MEGPGLGSQCRNHSHGPHPPGFGRYGICAHENKELANAREALPLIEDSSNCDIVKATQYGIFERCKELVEAGYDVRQPDKENVSLLHWAAINNRLDLVKFYISKGAVVDQLGGDLNSTPLHWAIRQGHLPMVILLLQHGADPTLIDGEGFSSIHLAVLFQHMPIIAYLISKGQSVNMTDVNGQTPLMLSAHKVIGPEPTGFLLKFNPSLNVVDKIHQNTPLHWAVAAGNVNAVDKLLEAGSSLDIQNVKGETPLDMALQNKNQLIIHMLKTEAKMRANQKFRLWRWLQKCELFLLLMLSVITMWAIGYILDFNSDSWLLKGCLLVTLFFLTSLFPRFLVGYKNLVYLPTAFLLSSVFWIFMTWFILFFPDLAGAPFYFSFIFSIVAFLYFFYKTWATDPGFTKASEEEKKVNIITLAETGSLDFRTFCTSCLIRKPLRSLHCHVCNCCVARYDQHCLWTGRCIGFGNHHYYIFFLFFLSMVCGWIIYGSFIYLSSHCATTFKEDGLWTYLNQIVACSPWVLYILMLATFHFSWSTFLLLNQLFQIAFLGLTSHERISLQKQSKHMKQTLSLRKTPYNLGFMQNLADFFQCGCFGLVKPCVVDWTSQYTMVFHPAREKVLRSV |
